This is one part of the list.
Columns and labels:
Experiment in all cases: glycan array binding signal (z-score within array); higher = stronger binding
Conditions in all cases: glycan notation: IUPAC condensed, linker removed
Gal(b1-2)Gal = biological target: Gal(b1-2)Gal
Method in brief: (§1)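 The binding signal is a Z-score computed within each array. Data were drawn from 3228 arrays in the Consortium for Functional Glycomics database, restricted to those with a known protein sequence. Scores were averaged over arrays of the same protein sequence at different concentrations or buffers, and over linkers, and negative values can be taken as non-binding.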

Gal(b1-3)Gal = biological target: Gal(b1-3)Gal
Method in brief: as §1

Gal(b1-3)Gal(b1-4)GlcNAc = biological target: Gal(b1-3)Gal(b1-4)GlcNAc
Method in brief: as §1

Gal(b1-3)GalNAc = biological target: Gal(b1-3)GalNAc
Method in brief: as §1

[1] = biological target: Gal(b1-3)GalNAc(a1-3)[Fuc(a1-2)]Gal(b1-4)Glc
Method in brief: as §1

[2] = biological target: Gal(b1-3)GalNAc(a1-3)[Fuc(a1-2)]Gal(b1-4)GlcNAc
Method in brief: as §1

Gal(b1-3)GalNAc(b1-3)Gal = biological target: Gal(b1-3)GalNAc(b1-3)Gal
Method in brief: as §1

[3] = biological target: Gal(b1-3)GalNAc(b1-3)Gal(a1-4)Gal(b1-4)Glc
Method in brief: as §1

[4] = biological target: Gal(b1-3)GalNAc(b1-4)Gal(b1-4)Glc
Method in brief: as §1

[5] = biological target: Gal(b1-3)GalNAc(b1-4)[Neu5Ac(a2-3)]Gal(b1-4)Glc
Method in brief: as §1

Gal(b1-3)GlcNAc = biological target: Gal(b1-3)GlcNAc
Method in brief: as §1

[6] = biological target: Gal(b1-3)GlcNAc(a1-3)Gal(b1-4)GlcNAc
Method in brief: as §1

[7] = biological target: Gal(b1-3)GlcNAc(a1-6)Gal(b1-4)GlcNAc
Method in brief: as §1

Gal(b1-3)GlcNAc(b1-2)Man = biological target: Gal(b1-3)GlcNAc(b1-2)Man
Method in brief: as §1

[8] = biological target: Gal(b1-3)GlcNAc(b1-2)Man(a1-3)[Gal(b1-3)GlcNAc(b1-2)Man(a1-6)]Man(b1-4)GlcNAc(b1-4)GlcNAc
Method in brief: as §1

[9] = biological target: Gal(b1-3)GlcNAc(b1-2)Man(a1-3)[Gal(b1-3)GlcNAc(b1-2)Man(a1-6)]Man(b1-4)GlcNAc(b1-4)[Fuc(a1-6)]GlcNAc
Method in brief: as §1

[10] = biological target: Gal(b1-3)GlcNAc(b1-2)Man(a1-3)[GlcNAc(b1-4)][Gal(b1-3)GlcNAc(b1-2)Man(a1-6)]Man(b1-4)GlcNAc(b1-4)GlcNAc
Method in brief: as §1

[11] = biological target: Gal(b1-3)GlcNAc(b1-2)[Gal(b1-3)GlcNAc(b1-6)]Man(a1-6)[Gal(b1-3)GlcNAc(b1-2)Man(a1-3)]Man(b1-4)GlcNAc(b1-4)GlcNAc
Method in brief: as §1

[12] = biological target: Gal(b1-3)GlcNAc(b1-3)Gal(b1-3)GlcNAc
Method in brief: as §1

[13] = biological target: Gal(b1-3)GlcNAc(b1-3)Gal(b1-4)Glc
Method in brief: as §1

[14] = biological target: Gal(b1-3)GlcNAc(b1-3)Gal(b1-4)GlcNAc
Method in brief: as §1

[15] = biological target: Gal(b1-3)GlcNAc(b1-3)Gal(b1-4)GlcNAc(b1-2)Man(a1-3)[Gal(b1-3)GlcNAc(b1-3)Gal(b1-4)GlcNAc(b1-2)Man(a1-6)]Man(b1-4)GlcNAc(b1-4)GlcNAc
Method in brief: as §1

[16] = biological target: Gal(b1-3)GlcNAc(b1-3)Gal(b1-4)GlcNAc(b1-2)[Gal(b1-3)GlcNAc(b1-3)Gal(b1-4)GlcNAc(b1-6)]Man(a1-6)[Gal(b1-3)GlcNAc(b1-3)Gal(b1-4)GlcNAc(b1-2)Man(a1-3)]Man(b1-4)GlcNAc(b1-4)[Fuc(a1-6)]GlcNAc
Method in brief: as §1

[17] = biological target: Gal(b1-3)GlcNAc(b1-3)Gal(b1-4)GlcNAc(b1-3)Gal(b1-4)GlcNAc(b1-2)[Gal(b1-3)GlcNAc(b1-3)Gal(b1-4)GlcNAc(b1-3)Gal(b1-4)GlcNAc(b1-6)]Man(a1-6)[Gal(b1-3)GlcNAc(b1-3)Gal(b1-4)GlcNAc(b1-3)Gal(b1-4)GlcNAc(b1-2)Man(a1-3)]Man(b1-4)GlcNAc(b1-4)[Fuc(a1-6)]GlcNAc
Method in brief: as §1

[18] = biological target: Gal(b1-3)GlcNAc(b1-3)Gal(b1-4)GlcNAc(b1-6)[Gal(b1-3)GlcNAc(b1-3)]Gal(b1-4)Glc
Method in brief: as §1

[19] = biological target: Gal(b1-3)GlcNAc(b1-3)Gal(b1-4)[Fuc(a1-3)]GlcNAc
Method in brief: as §1

[20] = biological target: Gal(b1-3)GlcNAc(b1-3)Gal(b1-4)[Fuc(a1-3)]GlcNAc(b1-6)[Gal(b1-3)GlcNAc(b1-3)]Gal(b1-4)Glc
Method in brief: as §1

[21] = biological target: Gal(b1-3)GlcNAc(b1-3)GalNAc
Method in brief: as §1

[22] = biological target: Gal(b1-3)GlcNAc(b1-6)Gal(b1-4)GlcNAc
Method in brief: as §1

[23] = biological target: Gal(b1-3)GlcNAc(b1-6)GalNAc
Method in brief: as §1

[24] = biological target: Gal(b1-3)GlcNAc(b1-6)[Gal(b1-3)]GalNAc
Method in brief: as §1

Gal(b1-3)GlcNAc6S = biological target: Gal(b1-3)GlcNAc6S
Method in brief: as §1

[25] = biological target: Gal(b1-3)[Fuc(a1-4)]GlcNAc
Method in brief: as §1

[26] = biological target: Gal(b1-3)[Fuc(a1-4)]GlcNAc(b1-2)Man
Method in brief: as §1

[27] = biological target: Gal(b1-3)[Fuc(a1-4)]GlcNAc(b1-2)Man(a1-3)[Gal(b1-3)[Fuc(a1-4)]GlcNAc(b1-2)Man(a1-6)]Man(b1-4)GlcNAc(b1-4)[Fuc(a1-6)]GlcNAc
Method in brief: as §1

[28] = biological target: Gal(b1-3)[Fuc(a1-4)]GlcNAc(b1-3)Gal(b1-3)[Fuc(a1-4)]GlcNAc
Method in brief: as §1

[29] = biological target: Gal(b1-3)[Fuc(a1-4)]GlcNAc(b1-3)Gal(b1-4)[Fuc(a1-3)]GlcNAc
Method in brief: as §1

[30] = biological target: Gal(b1-3)[Fuc(a1-4)]GlcNAc(b1-6)GalNAc
Method in brief: as §1

[31] = biological target: Gal(b1-3)[GlcNAc(b1-6)]GalNAc
Method in brief: as §1

[32] = biological target: Gal(b1-3)[Neu5Ac(a2-6)]GalNAc
Method in brief: as §1

[33] = biological target: Gal(b1-3)[Neu5Ac(a2-6)]GlcNAc(b1-4)Gal(b1-4)Glc
Method in brief: as §1

[34] = biological target: Gal(b1-3)[Neu5Ac(b2-6)]GalNAc
Method in brief: as §1

Gal(b1-4)Gal = biological target: Gal(b1-4)Gal
Method in brief: as §1

[35] = biological target: Gal(b1-4)GalNAc(a1-3)[Fuc(a1-2)]Gal(b1-4)GlcNAc
Method in brief: as §1

[36] = biological target: Gal(b1-4)GalNAc(b1-3)[Fuc(a1-2)]Gal(b1-4)GlcNAc
Method in brief: as §1

B1: EULS2 M4 (Oryza sativa) (protein)
chain: MVYCRANPNYAMTARNGAVVLAPANPKDEYQHWIKDMRWSTSIKDEEGYPAFALVNKATGQAIKHSLGQSHPVRLVPYNPEVMDESVLWTESRDVGNGFRCIRMVNNIYLNFDAFHGDKYHGGVRDGTDIVLWKWCEGDSLRWKIQPYYILEQKLISEEDLNSAVDHHHHHH
- glycan array binding signal (z-score) (Gal(b1-2)Gal): 1.56
- glycan array binding signal (z-score) (Gal(b1-3)Gal): -0.452
- glycan array binding signal (z-score) (Gal(b1-3)Gal(b1-4)GlcNAc): -0.554
- glycan array binding signal (z-score) (Gal(b1-3)GalNAc): -0.7
- glycan array binding signal (z-score) [1]: -0.225
- glycan array binding signal (z-score) [2]: -0.49
- glycan array binding signal (z-score) (Gal(b1-3)GalNAc(b1-3)Gal): -0.661
- glycan array binding signal (z-score) [3]: -0.214
- glycan array binding signal (z-score) [4]: -0.428
- glycan array binding signal (z-score) [5]: -0.574
- glycan array binding signal (z-score) (Gal(b1-3)GlcNAc): -0.319
- glycan array binding signal (z-score) [6]: -0.21
- glycan array binding signal (z-score) [7]: -0.357
- glycan array binding signal (z-score) (Gal(b1-3)GlcNAc(b1-2)Man): -0.517
- glycan array binding signal (z-score) [8]: -0.259
- glycan array binding signal (z-score) [9]: -0.366
- glycan array binding signal (z-score) [10]: 4.91
- glycan array binding signal (z-score) [11]: 0.796
- glycan array binding signal (z-score) [12]: -0.473
- glycan array binding signal (z-score) [13]: -0.491
- glycan array binding signal (z-score) [14]: -0.058
- glycan array binding signal (z-score) [15]: 0.233
- glycan array binding signal (z-score) [16]: -0.445
- glycan array binding signal (z-score) [17]: -0.088
- glycan array binding signal (z-score) [18]: -0.04
- glycan array binding signal (z-score) [19]: 1.53
- glycan array binding signal (z-score) [20]: -0.657
- glycan array binding signal (z-score) [21]: -0.474
- glycan array binding signal (z-score) [22]: 2.36
- glycan array binding signal (z-score) [23]: -0.558
- glycan array binding signal (z-score) [24]: -0.504
- glycan array binding signal (z-score) (Gal(b1-3)GlcNAc6S): -0.943
- glycan array binding signal (z-score) [25]: 0.94
- glycan array binding signal (z-score) [26]: -0.061
- glycan array binding signal (z-score) [27]: 0.081
- glycan array binding signal (z-score) [28]: 0.373
- glycan array binding signal (z-score) [29]: 0.555
- glycan array binding signal (z-score) [30]: -0.614
- glycan array binding signal (z-score) [31]: -0.511
- glycan array binding signal (z-score) [32]: -0.516
- glycan array binding signal (z-score) [33]: -0.235
- glycan array binding signal (z-score) [34]: -0.453
- glycan array binding signal (z-score) (Gal(b1-4)Gal): -0.47
- glycan array binding signal (z-score) [35]: 1.49
- glycan array binding signal (z-score) [36]: 0.086

— the supplement of paper PMC8728848
